target: C. butyricum glycerol dehydratase (CbGD) (Clostridium butyricum, UniProt Q8GEZ8)

SMILES	activity as substrate
C[C@@H](O)CO [R-1,2-propanediol, (R)-1,2-propanediol]	No activity was observed
C[C@H](O)CO [S-1,2-propanediol, (S)-1,2-propanediol]	can utilize
OCC(O)CO [glycerol, propane-1,2,3-triol]	can utilize

Reference: US20160040196A1, “ENZYMATIC CONVERSION OF BOTH ENANTIOMERS OF 1,2-PROPANEDIOL TO PROPIONALDEHYDE” (University of Georgia Research Foundation, Inc., priority 2014, published 2016)
